From PubChem BioAssay AID1768 (National Center for Advancing Translational Sciences (NCATS), 2009)
“And” between values parts separate entries of the source, which are not always exact repeats. Equal values may be shown once. Out of some 270,000 compounds screened, about 620 (0.23%) were called active. The shares of active, inactive and inconclusive entries below differ from those in the screen. Calls follow the shape of the dose curve; as a rule, active = well fitted inhibition curve with a large enough effect in the polarisation, with a control signal flat (not every such curve was filed as active); inconclusive = small, poorly fitted or top-dose-only effect, or effect the other way, or a change in a side signal; inactive = no such curve, though single readings can be large or run the other way; the % refers to the polarisation. Potencies beside an inconclusive call are fits to weak or partial responses and may not hold up. “Side channel” marks fits to a control or component signal instead of the main read-out.

Target: Menin (Homo sapiens) (UniProt O00255)
UniProt O00255, sequence (O00255 whole entry, looked up): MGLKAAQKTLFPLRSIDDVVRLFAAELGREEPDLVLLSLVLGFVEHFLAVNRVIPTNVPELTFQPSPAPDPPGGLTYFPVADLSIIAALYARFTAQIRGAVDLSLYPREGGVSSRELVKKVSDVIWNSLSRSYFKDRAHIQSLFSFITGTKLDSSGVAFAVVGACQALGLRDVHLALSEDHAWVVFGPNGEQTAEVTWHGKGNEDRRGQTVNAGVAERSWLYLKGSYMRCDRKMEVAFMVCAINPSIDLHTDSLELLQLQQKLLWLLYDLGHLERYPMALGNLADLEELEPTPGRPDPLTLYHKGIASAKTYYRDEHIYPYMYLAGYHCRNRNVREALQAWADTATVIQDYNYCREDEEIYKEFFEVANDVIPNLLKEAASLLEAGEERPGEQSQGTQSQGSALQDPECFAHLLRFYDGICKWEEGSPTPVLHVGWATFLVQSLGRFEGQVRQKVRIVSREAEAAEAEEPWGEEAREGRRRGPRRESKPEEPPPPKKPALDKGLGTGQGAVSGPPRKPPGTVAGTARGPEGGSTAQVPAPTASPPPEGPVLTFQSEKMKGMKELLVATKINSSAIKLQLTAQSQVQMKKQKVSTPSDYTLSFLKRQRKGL
Assay: qHTS Assay for Inhibitors Targeting the Menin-MLL Interaction in MLL Related Leukemias: Competition With Texas Red Labeled MLL-derived Mutant Peptide; as to FP activity change, negative = inhibition: % of control where 0% means no effect
Details: fluorescence polarization; FP activity change, negative = inhibition: at 61.6 µM (top of the series)
Potency is read from the fitted curve at half-maximal effect; tags tell the direction and shape of the fitted curve or compound fluorescence and quenching.

Potency, inactive:
CC(C)(Sc1ccc(CCN(CCCCC2CCCCC2)C(=O)NC2CCCCC2)cc1)C(=O)O

Potency, inconclusive:
COc1ccccc1NC(=O)Nc1ccc(Cl)c(S(=O)(=O)Nc2ccccc2OC)c1 5.01 µM [quencher, side channel, full curve, poor fit]
Cc1ccc(NC(=O)Nc2nnc(Cc3ccc([N+](=O)[O-])cc3)s2)cc1C 8.91 µM [quencher, side channel, full curve]
COc1ccc(Br)cc1C(=O)Nc1ccc(N2CCCC2)cc1 12.6 µM [quencher, side channel, partial curve, poor fit]
Oc1ccc(N=Nc2ccc(Br)cc2)c(O)c1 15.8 µM [quencher, side channel, partial curve]
Cc1[nH]c2ccccc2c1N=Nc1ccccc1F 10 µM [quencher, side channel, partial curve]
Cc1noc(C)c1COc1cccc(C(=O)OCC(=O)N2CC(=O)Nc3ccccc32)c1 4.47 µM [inhibitor, partial curve]
CSc1ccc2c(c1)N(CCC1CCCCN1C)c1ccccc1S2 (configuration not stated) 10 µM [fluorescent, side channel, partial curve] and 35.5 µM [fluorescent, side channel, single point]
CCCCC[C@H]1CN(CCCC)C(=O)[C@@H]1CC(=O)NCc1ccc(OC)cc1 11.2 µM [inhibitor, partial curve]
O=C1Cc2ccccc2Sc2cc(OCCCN3CCCCC3)ccc21 14.1 µM [inhibitor, partial curve]
COCC(C)n1c(C)cc(C(=O)CSc2ncccn2)c1C (configuration not stated) 14.1 µM [inhibitor, partial curve]
O=C(CSc1n[nH]c(=O)[nH]c1=O)N/N=C/C=C\c1ccccc1 39.8 µM [fluorescent, side channel, single point]
Cc1ccccc1Cn1cnc2c(nnn2Cc2ccc(F)cc2)c1=O 15.8 µM [fluorescent, side channel, partial curve]
CC(=O)c1ccc(NC(=O)CSc2nc(C3CC3)nc3ccccc23)cc1 39.8 µM [fluorescent, side channel, single point]
COc1ccc2nc3sc(C(=O)NCc4cccs4)c(N)c3cc2c1 28.2 µM [quencher, side channel, single point]
CCN(CC)c1ccc(/C=N/Nc2nc3ccccc3[nH]2)cc1 20 µM [quencher, side channel, partial curve]
Cc1cccc(C2c3[nH]c4ccccc4c3CCN2C(=O)c2ocnc2C)n1 (configuration not stated) 6.31 µM [inhibitor, partial curve]
CC1CCCCN1S(=O)(=O)c1ccc(NC(=O)c2cccc(-n3cnnn3)c2)cc1 (configuration not stated) 12.6 µM [quencher, side channel, partial curve]
O=C(Nc1ccc(Cl)c(Cl)c1)C1=Cc2ccccc2OC1 28.2 µM [quencher, side channel, partial curve]
COc1ccccc1N1N=C(c2ccc([N+](=O)[O-])cc2)CC1c1ccccc1 (configuration not stated) 28.2 µM [inhibitor, partial curve]
COc1ccc(Nc2nc(-c3sc(C)nc3C)cs2)cc1 31.6 µM [quencher, side channel, single point]
CCOC(=O)C1CCCN(C(=O)c2cc3c(-c4cccc(OC)c4)nn(C)c3s2)C1 (configuration not stated) 15.8 µM [fluorescent, side channel, partial curve, poor fit]
CCCCS(=O)(=O)Nc1ccc2c(c1)ncn2C1CCCCC1 12.6 µM [inhibitor, partial curve]
Cc1ccc2cc3c(nc2c1)N(c1ccccc1)CC3 15.8 µM [quencher, side channel, partial curve]
Cc1ccc(N2CCN(C(=O)c3ccccc3Br)CC2)c(C)c1 8.91 µM [inhibitor, full curve, poor fit]
O=C(CCc1ccccc1)Nc1cccc(-c2nnc(-c3ccco3)o2)c1 28.2 µM [quencher, side channel, single point]
COc1ccc(-n2c(=S)[nH]c3cc(C(=O)NCc4cccnc4)ccc3c2=O)cc1 25.1 µM [fluorescent, single point]
Cc1nn(-c2ccccc2)c(Cl)c1C(=O)NC1CCCCC1 14.1 µM [inhibitor, partial curve]
CC[C@H]1C(c2cccc(C)c2)=NN(c2ccccc2)[C@@H]1CO 56.2 µM [quencher, side channel, partial curve]
Oc1ccc(-c2[nH]ncc2-c2ccc(Br)cc2)c(O)c1 17.8 µM [quencher, side channel, partial curve]
CSc1ccc(S(=O)(=O)N2CCC(C(=O)Nc3ccc(C(N)=O)cc3)CC2)cc1 22.4 µM [fluorescent, side channel, single point]
COc1ccc(N=C2NC(=O)/C(=C\C=C\c3ccccc3)S2)cc1 12.6 µM [inhibitor, partial curve]
COc1ccccc1C(O)P(=O)(OCC(C)C)c1ccc(N(C)C)cc1 (configuration not stated) 35.5 µM [inhibitor, partial curve]
COc1ccc(OCCCn2cc(/C=C3/C(=N)N4C=C(C)SC4=NC3=O)c3ccccc32)cc1 0.708 µM [quencher, side channel, full curve, poor fit]
Oc1c(C=C2N=c3ccccc3=N2)sc(=S)n1C1CCCCC1 3.16 µM [quencher, side channel, single point]
O=C(CCC(=O)Nc1ccc(F)cc1)N/N=C/c1c[nH]c2ccccc12 25.1 µM [quencher, side channel, partial curve]
Oc1ccc(/C=N/Nc2ncnc3c2ncn3Cc2ccccc2)cc1O 31.6 µM [quencher, side channel, single point]
Fc1cccc(Cl)c1CNc1ccc(N2CCCC2)cc1 25.1 µM [inhibitor, single point]
CCCc1ccc(Oc2cn[nH]c2-c2ccc(O)c(C)c2O)cc1 22.4 µM [quencher, side channel, partial curve]
O=C1C(C=Nc2ccccc2O)=C(O)c2ccccc21 14.1 µM [quencher, side channel, partial curve]
Cc1ccc(NC(=O)Cn2nnc(C(=O)NCc3ccc(Cl)cc3)c2N)cc1F 25.1 µM [fluorescent, side channel, single point]
O=C(CCc1nc(-c2ccccc2)c(-c2ccccc2)o1)OCc1ccc(Cl)cc1 5.62 µM [inhibitor, partial curve]
N#Cc1c(-c2ccco2)nc(SCc2ccc(F)cc2)[nH]c1=O 22.4 µM [quencher, side channel, single point]
CC(=O)SC(C)CC(=O)NCc1ccccc1 (configuration not stated) 22.4 µM [quencher, side channel, single point]
O=C(Nc1ccccc1O)c1ccc(Cl)cc1 31.6 µM [quencher, side channel, partial curve]
COc1ccc(CNC(=O)CSc2nc(-c3ccccc3)cc(-c3cccs3)c2C#N)cc1 15.8 µM [fluorescent, side channel, partial curve]
Cc1cc(N/N=C/c2ccccc2O)nc(-c2ccccc2O)n1 3.55 µM [quencher, side channel, full curve]
CCS(=O)(=O)NCCCCc1ccccc1 39.8 µM [inhibitor, single point]
O=C(O)C1CCN(c2nc(-c3ccccc3)nc3c2oc2ccccc23)CC1 10 µM [quencher, side channel, partial curve]
O=C(COc1ccc(F)cc1)N1c2ccccc2CCc2ccccc21 7.08 µM [fluorescent, side channel, full curve, poor fit]
CN(C)C(CNC(C(=O)Nc1ccc([N+](=O)[O-])cc1Br)c1ccccc1)c1ccccc1 (configuration not stated) 17.8 µM [fluorescent, side channel, single point]

FP activity change, negative = inhibition, inactive:
CCOc1ccccc1N1CCN(Cc2ccco2)CC1 -11.7%
O=[N+]([O-])c1cc([N+](=O)[O-])c(Oc2c(F)ccc(F)c2F)cc1NN1CCCCC1 15.7%
CN(CCCCCC(=O)/C=N/O)Cc1ccccc1 -7.51%
c1ccc(-c2cn(C[C@H]3CC[C@@H]([C@@H]4CC[C@H](Cn5cc(-c6ccccn6)nn5)O4)O3)nn2)nc1 -7.32%
CCCCCCc1cc2cc(C(=O)Nc3ccc(OC)cc3)c(=O)oc2cc1O 5.1%
S=c1[nH]nc(-c2ccccn2)n1/N=C/c1ccccc1 15%
